The record followed here is the supplement of paper PMC10126150.

Sequences with one replicate were seen in a single cluster, so their values are uncertain.

The subject of this data set is ATP. The data set is described as follows: switch fluorescence ratio, 500 uM ATP over buffer (Cy3 cluster intensity, sum of 5 cycles each) (fold (ratio)); higher = stronger signal-on switching upon ATP binding; sequences stand for … in TCGTCGGCAGCGTCAGATGTGTATAAGAGACAGTTTTTTTTTTTTTTTTTTTTTTTTT…TC. The conditions noted are these: aptamer strand: ATP DNA aptamer (quencher-CACCTGGGGGAGTATTGCGGAGGAAGG + anchor), 100 nM annealed; ATP concentration: 500 uM; one replicate. The method, boiled down: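 For every switch-domain sequence, the fluorescence ratio is the mean of per-cluster values, each being summed target-cycle Cy3 intensity over summed buffer-cycle Cy3 intensity. Clusters outside 100-1000 RFU were excluded. On a modified Illumina MiSeq flow-cell, the Cy3-labelled switching-strand clusters were annealed to 100 nM quencher-labelled ATP aptamer, imaged in selection buffer and then after 15 min with 500 uM ATP at 22 °C. Five such cycles were run, with NaOH stripping and re-annealing between them.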
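Further: ATP exposure 15 min at 22 °C before imaging.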

On to CCGGCGGACT, for which the switch fluorescence ratio was determined as 1.08.
Regarding GTTTACTGTA, the switch fluorescence ratio was 1.02.
In the case of GTAACCTGCT, the switch fluorescence ratio came to 1.01.
Turning to CGCTTCCCA, the switch fluorescence ratio came to 1.15.
Turning to CGCTGGTCGT, the switch fluorescence ratio was found to be 0.987.
For AGTTGCACTA, the switch fluorescence ratio was 0.959.
Turning to TTGAGCGCAT, the switch fluorescence ratio was determined as 1.21.
On to CCCGACCTAT, for which the switch fluorescence ratio was 1.21.
Take AAAACGGCCC: the switch fluorescence ratio stood at 1.06.
As for GATCCAAAAA, the figure is 1.02.
Next, GATTGTAGA: 0.986.
Turning to GGAATCGTCC, the switch fluorescence ratio is 1.12.
As for TCCTGTGGCC, the figure is 1.02.
Consider TCTAGTCTCA, for which the switch fluorescence ratio is 0.993.
For ATTGTCTCAC, the switch fluorescence ratio was 0.966.
Regarding TTTATAACTT, the switch fluorescence ratio stood at 1.
On to CGTGATAGCA, for which the switch fluorescence ratio worked out at 1.
As for CAACTTAGTG, the figure is 1; as for TAAAGCTATA, 1.02; as for GTGTCATTAC, 1.16.
Regarding TTACTCCGTG, the switch fluorescence ratio stood at 1.95.
Take TCATAGCCAA: the switch fluorescence ratio is 1.21.
Take TACAAGGACA: the switch fluorescence ratio was 1.04.
As to GGGAAGGACA, the switch fluorescence ratio amounted to 0.971.
In the case of TGGTGCTTAG, the switch fluorescence ratio was determined as 1.09.
ACTCGCATCT: the switch fluorescence ratio was 1.77.
Take ATGTGGTTTA: the switch fluorescence ratio is 1.04.
Consider GCATAGGGAG, for which the switch fluorescence ratio came out at 1.04.
As for GCTTTTACTC, the figure is 1.32; as for CAAACGGTGC, 1.32.
Next, TATTCTACTA: 1.01.
As for TAGACGGGTT, the figure is 1.02.
With AATATTCGTC, the switch fluorescence ratio stood at 0.999.
CCTGATTACA: the switch fluorescence ratio was determined as 1.
Next, CATTTACCTG: 1.01.
For AGTCGTGGGG, the switch fluorescence ratio stood at 0.983.
With AACGTGGTCC, the switch fluorescence ratio was found to be 1.03.
As to TCCATGAAGT, the switch fluorescence ratio was 0.983.
As to GACTTCAGAG, the switch fluorescence ratio stood at 0.989.
For the sequence CGGCGCTGCG, the switch fluorescence ratio was determined as 1.14.
Consider GTTATTGG, for which the switch fluorescence ratio amounted to 0.992.
ATATAACTCA: the switch fluorescence ratio amounted to 0.989.
On to TGATCAACCG, for which the switch fluorescence ratio came out at 1.06.
As for CGCGGTCAAT, the figure is 1.34.
Consider CATCTATCAA, for which the switch fluorescence ratio turned out to be 1.04.
AGAGGTAACA: the switch fluorescence ratio was 0.973.
Next, GTCTTAACGC: 0.983.
Regarding GAGGGAGCTC, the switch fluorescence ratio came out at 0.98.
For ATTATTGTGG, the switch fluorescence ratio is 1.01.
As to GGTAGAGGAG, the switch fluorescence ratio turned out to be 1.03.
For TGACTGGCGA, the switch fluorescence ratio came out at 1.23.
GTCCTCTTTC: the switch fluorescence ratio was determined as 0.968.
TTCTCCTAGC: the switch fluorescence ratio was determined as 1.28.
As to AGCATGGTCA, the switch fluorescence ratio amounted to 1.
On to GGGGTGGTGC, for which the switch fluorescence ratio is 1.03.
With TGGTGATGGA, the switch fluorescence ratio turned out to be 1.01.
Consider GAAACCAAGA, for which the switch fluorescence ratio turned out to be 1.04.
Turning to ACAATGTGAC, the switch fluorescence ratio turned out to be 1.04.
On to GCGGTGCGGT, for which the switch fluorescence ratio was 0.972.
For TAATTTCCCC, the switch fluorescence ratio came to 1.06.
GGTGTGGCT: the switch fluorescence ratio worked out at 0.998.
With GTCATTTTTA, the switch fluorescence ratio was found to be 0.994.
With CGCAAGGAAG, the switch fluorescence ratio turned out to be 1.12.
As to CCTTCACTCA, the switch fluorescence ratio was found to be 1.3.
Take GCACCTTCAT: the switch fluorescence ratio was 1.48.
On to GTTAATTAGT, for which the switch fluorescence ratio was 0.991.
For ATTTTGGCCA, the switch fluorescence ratio was determined as 0.999.
